Out of some 44,000 compounds screened, about 340 (0.77%) were called active. About 5% were inconclusive and are not listed. Calls follow the shape of the dose curve; as a rule, active = well fitted inhibition curve with a large enough effect; inconclusive = small, poorly fitted or top-dose-only effect; inactive = flat fitted curve, though single readings scatter. This is one part of the list.
Test: Acumen qHTS Assay for Inhibitors of the mTORC1 Signaling Pathway in MEF (Tsc2-/-, p53-/-) Cells: Sytravon;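 also: plate controls were DMSO for no effect and rapamycin for full effect; nearly all actives have a fitted effect of over 50% in size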
Conditions: phospho-rpS6 immunofluorescence/PI, 24 h; series mostly up to 38.3 µM; activity change, negative = inhibition: at the top concentration
Summary of the method: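 Tsc2-/-, p53-/- MEFs (empty-vector stable line) in DMEM + 10% FBS were treated with compounds 24 h at 37 degree Celsius, fixed, and immunostained for phospho-rpS6 (Alexa-488) with propidium iodide counterstain. Laser-scanning cytometry gave % positive cells, normalized against 7.5 nM rapamycin and DMSO.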

Activity change, negative = inhibition, inactive:
CCOc1ccccc1CNC(=O)Cn1nc(C)c2nn(-c3ccc(Cl)cc3)c(C)c2c1=O 4.07%
COC(=O)COc1ccc(Oc2nc(NC(C)(C)C)nc(N3CCOCC3)n2)nn1 1.22%
COc1ccc(N2CCN(S(=O)(=O)c3c(C)nc4sc(C)cn4c3=O)CC2)cc1 7.38%
COc1ccc(Cc2nc3c4cnn(-c5ccccc5Br)c4ncn3n2)cc1 6.22%
CC1=C(c2ccc(C)c(C)c2)S(=O)(=O)N(Cc2ccc(C(=O)NCc3ccc(C)cc3)cc2)C1=O -4.6%
Cc1cccc(OCC(=O)NCc2ccc3c(c2)CCN3C(=O)c2ccccc2)c1 -5.75%
O=C(Cn1c(=O)oc2cc(S(=O)(=O)NCc3ccccc3)ccc21)NCc1ccc(F)cc1 -8.93%
COc1ccc(/C=C/C(=O)Nc2ccc(Cl)c(Cl)c2)cc1OC 6.8%
CCOc1ccc(NC(=O)c2cc(CN3CCCC3)on2)cc1 -5.11%
Cc1c(C(=O)NCc2ccc(F)cc2)sc2nc3n(c(=O)c12)CCC3 7.42%
COc1ccc(-c2ccc(=O)n(CC(=O)Nc3ccc(N(C)C)cc3)n2)cc1 -0.277%
CC(=O)Nc1ccc(NC(=O)Nc2sc3nc4n(c(=O)c3c2C)CCC(C)CC4)cc1 (stereo unspecified) 0.981%
O=C(Cn1nc(C(F)(F)F)c2c1CCCC2)Nc1ccc(F)c(Cl)c1 -17.9%
CSc1ccc(C2c3c(oc4ccc(F)cc4c3=O)C(=O)N2c2ccc(C)cn2)cc1 (stereo unspecified) -10.6%
CCOc1ccc2oc(=O)cc(CN3CCN(C(=O)c4ccc(Cl)cc4)CC3)c2c1 2.39%
CCCCc1nn2c(=O)cc(COC(=O)CNC(=O)c3ccccc3C)nc2s1 0.296%
Cc1c(NC(=O)c2cc3ccccc3o2)cccc1-c1nc2ccccc2o1 11%
COc1ccc(OC)c(NC(=O)c2ccc(-c3nc(COc4ccccc4)c(C)o3)cc2)c1 -1.49%
Cc1cccc(N(C)C(=O)C2CCN(S(=O)(=O)c3cccc4nonc34)CC2)c1 0.196%
Cc1ccc2nc(Nc3ccc(Br)cc3)nc(-c3ccccc3)c2c1 0.379%
Cc1ccc(C(C)C)c(OCCSc2nc(-c3cccs3)nc3cc(=O)[nH]n23)c1 11.4%
COc1ccc(OC)c(NC(=O)Cn2cc(C(=O)c3cccs3)c3ccccc32)c1 -1.11%
CCc1cccc(CC)c1NC(=O)Cc1csc(C)n1 1.82%
CCC(=O)N1CCc2cc(CNS(=O)(=O)c3ccc(Cl)s3)ccc21 -9.08%
Cc1cccc(CN2C(=O)c3ccccc3Sc3ccc(C(=O)NCCc4ccccc4)cc32)c1 -0.994%
Cc1cc(Nc2cccc(F)c2)n2nc(-c3ccco3)nc2n1 8.15%
Cc1ccc(C)c(N2CCN(C(=O)C3CCN(Cc4nc(-c5cccc(Cl)c5)oc4C)CC3)CC2)c1 -1.34%
NC(=O)C1(N2CCCCC2)CCN(C(=O)Nc2ccc(Cl)c(Cl)c2)CC1 -0.618%
COc1ccc(N2CCN(C(=O)c3cc4c(=O)n(Cc5cccs5)ccc4nc3C)CC2)cc1 0.0876%
Cc1cc(Cl)ccc1NC(=O)C1CCN(S(=O)(=O)c2ccc3[nH]c(=O)ccc3c2)CC1 -7.71%
COc1cccc(NC(=O)c2sc3nc(C)c(C(=O)Nc4ccc(C)cc4C)c(-c4ccc(Br)cc4)c3c2N)c1 -2.14%
COc1ccc(CNC(=O)c2cc3sccc3n2C)cc1 -3.78%
Cc1ccc2nc(SC(Cc3cc(Cl)ccc3Cl)C(=O)O)[nH]c2c1 (stereo unspecified) -1.14%
Cc1cccc(Cn2c(=O)n(CCc3ccccc3)c(=O)c3sc4ccccc4c32)c1 2.16%
Cc1ccc(CCNC(=O)CCSCc2ccccc2F)cc1 14.1%
O=C(CCOc1ccccc1)N(Cc1cccnc1)c1nc2c(Cl)cccc2s1 -5.47%
CCOC(=O)c1cc(-c2ccccc2)nn1Cc1ccccc1 -8.04%
Cc1ccc(C2c3[nH]c4ccccc4c3CCN2C(=O)c2ccc(N(C)C)cc2)cc1 (stereo unspecified) -7.27%
Cc1ccc2oc(C(=O)Nc3c(C(=O)c4ccc(C)c(F)c4)oc4ccccc34)cc(=O)c2c1 2.11%
O=S(=O)(Nc1c(F)cccc1F)c1ccc2c(c1)OCCO2 -9.93%
CCOC(=O)N1CCc2c(sc3c2c(=O)n(Cc2ccccc2)c(=O)n3CC(=O)Nc2ccccc2F)C1 3.56%
COc1ccc(C)cc1NC(=O)C(CCSC)NS(=O)(=O)c1ccc2c(c1)oc(=O)n2C (stereo unspecified) -18.1%
CCn1nnc2cc(C(=O)Nc3cccc(C(F)(F)F)c3)ccc21 4.03%
CC(C)NC(=O)c1cnc2sc(N3CCCCCC3)nn2c1=O 0%
COc1ccc(CN(C(=O)Nc2ccccc2)c2ccccn2)cc1OC -10.3%
Cc1ccc(S(=O)(=O)N(Cc2nc(-c3ccc(Cl)cc3)no2)C2CCCCC2)cc1 -1.56%
COc1ccc(-c2noc(-c3ccc(N4CCOCC4)c([N+](=O)[O-])c3)n2)cc1OC 3.58%
CCOCCCNC(=O)N1CCN(S(=O)(=O)c2ccc3c(ccn3C)c2)CC1 -7.67%
COc1ccccc1N1CCN(CCC(=O)Nc2cccc(F)c2)CC1 0.857%
Cn1c(=O)c2c(SCC(=O)NCC3CCCO3)nc(-c3ccccc3F)nc2n(C)c1=O (stereo unspecified) 1.57%
CCOC(=O)c1ccc(NS(=O)(=O)c2cc3c(cc2C)n(C)c(=O)c(=O)n3C)cc1 -2.58%
CCOc1ccc(CNC(=O)c2cnc(SC)nc2CC)cc1 0.26%
CCOc1ccc(NC(=O)CSc2oc(-c3cccs3)nc2S(=O)(=O)c2ccc(Cl)cc2)cc1 -1.61%
O=C(Cn1c(=O)n(-c2ccccc2)c(=O)c2ccc(C(=O)NCc3ccc4c(c3)OCO4)cc21)Nc1ccc(Br)cc1F -5.87%
COc1ccc(CNc2nc(-c3ccc(OC)c(OC)c3)cc(C(F)(F)F)n2)cc1 -15.5%
CCCCSCCCNC(=O)CN1C(=O)COc2ccc(S(=O)(=O)N3CCCC3)cc21 -7.73%
Cc1cc(NC(=O)c2ccc(Cl)c(Cl)c2)ccc1-c1cc2ccccc2oc1=O 1.38%
CCCSc1ncc(Cl)c(C(=O)Nc2ccc(CC)cc2)n1 -6.59%
CC1(C)C(=O)N(CC(=O)Nc2ccc(OC(F)(F)F)cc2)c2ccccc21 0%
Cc1ccc(CNC(=O)CSc2nc3ccsc3c(=O)n2-c2ccc(C(=O)O)cc2)cc1 1.38%
O=C(CSC1=Nc2ccccc2C2=NC(CCC(=O)NC3CCCCC3)C(=O)N12)Nc1cccc(Cl)c1 (stereo unspecified) 2.59%
CCOC(=O)C1CCC(CN(Cc2c(Cl)cccc2Cl)S(=O)(=O)c2ccc(F)c(C)c2)CC1 (stereo unspecified) -8.96%
COc1cccc(NC(=O)CCNS(=O)(=O)c2ccc3c(c2)CCCC(=O)N3)c1 -7.68%
CCOC(=O)c1c(C)[nH]c(C)c1S(=O)(=O)N(C)CC(=O)Nc1cc(Cl)ccc1OC 3.29%
Cc1cccc(NC(=O)c2ccc(F)c(S(=O)(=O)N(C)C3CCCCC3)c2)c1 5.27%
CCOc1ccc(C(=O)N2CCN(Cc3cc(=O)n4nc(-c5cccc(OC)c5)sc4n3)CC2)cc1 6.24%
CC(=O)Nc1ccc(Nc2nc3ccc(C)cc3n3nnnc23)cc1 -3.32%
COc1ccc(NC(=O)C(C)n2nc(C)c3c(C)n(-c4ccccc4)nc3c2=O)cc1Cl (stereo unspecified) -7.43%
CCOCCCNC(=O)C(c1ccc(Cl)cc1)N(Cc1ccc2c(c1)OCO2)C(=O)c1ccccc1O (stereo unspecified) 16.7%
COc1ccc(-c2nc(S(=O)(=O)c3ccccc3)c(N3CCCCC3)o2)cc1 -13.1%
CCN(Cc1nc(-c2ccc(OC)cc2)oc1C)S(=O)(=O)c1ccc(Cl)cc1 0%
Cc1ccc(C)c(OCCCn2c(-c3ccc(Cl)cc3)nc3ccccc3c2=O)c1 -0.535%
COc1ccc(N2CCN(C(=O)c3cccn4c(=O)c5ccc(Cl)cc5nc34)CC2)cc1 -7.82%
Cc1ccc2oc(=O)c3cnn(CC(=O)Nc4ccc(Br)cc4C)c3c2c1 4.86%
CCc1cccc(C)c1NC(=O)COCc1cc(-c2ccc3c(c2)OCO3)on1 -0.597%
Cc1cc(C)c(Cn2c(C)c(CNCc3ccccc3C)c(C(=O)O)c2C)c(C)c1 7.33%
CCc1ccccc1NC(=O)C(=O)c1cc(C)n(-c2ccccc2F)c1C 0%
O=C(c1ccco1)N(Cc1cccnc1)c1nc2c(F)cccc2s1 -10.4%
CC1CCCCN1C(=O)CSc1nc2ccccc2nc1Cc1ccc(Cl)cc1 (stereo unspecified) 0.934%
COc1cc(OC)cc(-c2nc3nc(C)c(CCC(=O)Nc4ccc(C)cc4)c(C)n3n2)c1 -5.95%
Nc1c(C(=O)Nc2ccccc2Cl)nnn1Cc1cccc(Cl)c1 0.289%
Cc1ccc(NCc2nc3ccccc3n2CCOc2ccccc2C)cc1 -11.4%
COC(=O)c1cc(NC(=O)c2cnc(SC)nc2-c2ccccc2)cc(C(=O)OC)c1 -1.13%
Cc1c(CCNS(=O)(=O)c2ccccc2)sc2nc(-c3ccc(Cl)cc3)nn12 -12%
CCNc1nc2c(c(=O)n(C)c(=O)n2C)n1CC(O)COc1ccccc1 (stereo unspecified) -3.29%
COc1ccc(NC(=O)Nc2cccc(C)n2)c(OC)c1 5.12%
Cc1c2cnn(CC(=O)O)c(=O)c2c(C)n1Cc1cccc(Cl)c1 1.61%
O=C(CC1N=C2c3ccccc3N=C(SCc3ccc(Cl)cc3)N2C1=O)NC1CCCCC1 (stereo unspecified) 1.05%
Cc1cc2c(cc1S(=O)(=O)CCC(=O)Nc1ccc(OC(F)(F)F)cc1)OCC(=O)N2 7.08%
CCOc1ccc2cc(-c3nnc(Nc4ccccc4F)s3)c(=O)oc2c1 21%
Cc1ccc(CNC(=O)COCc2cc(-c3ccc4c(c3)OCO4)on2)cc1 -6.96%
O=C(NCc1cccc(Br)c1)c1ccc(-n2cnc3cccnc32)cc1 -7.24%
Cc1ccc(-n2ncc3c(N4CCC(C)CC4)ncnc32)cc1C 11%
COc1ccc(C(C(=O)NCc2ccccc2)N(C(=O)Cn2nnc3ccccc32)c2ccc(F)cc2)cc1 (stereo unspecified) -3.62%
COc1ccc(NCc2nc3ccccc3n2CCOc2ccc(C)cc2)cc1 -15.3%
Cc1ccc(Cl)cc1N1CCN(C(=O)c2cn(C)c3ccc(S(=O)(=O)N4CCC(C)CC4)cc3c2=O)CC1 -3.15%

Reference: PubChem BioAssay AID493208 (National Center for Advancing Translational Sciences (NCATS), 2011)
